# B1: IgG4 Fc IgM tp L309 (wild type IgG4 Fc-multimer) (Fc fusion)
# chain: [human IgG4 Fc with S228P (EU numbers) not printed]PTLYNVSLVMSDTAGTCY
# Target: human FcRn with human beta2M on MDCK II clone 15 cells (human, UniProt P55899 24-365; P61769 fragment)
# Assay: cell-based or functional assay
# Chain of UniProt P55899 (P55899 24-365, chain 1 of 2): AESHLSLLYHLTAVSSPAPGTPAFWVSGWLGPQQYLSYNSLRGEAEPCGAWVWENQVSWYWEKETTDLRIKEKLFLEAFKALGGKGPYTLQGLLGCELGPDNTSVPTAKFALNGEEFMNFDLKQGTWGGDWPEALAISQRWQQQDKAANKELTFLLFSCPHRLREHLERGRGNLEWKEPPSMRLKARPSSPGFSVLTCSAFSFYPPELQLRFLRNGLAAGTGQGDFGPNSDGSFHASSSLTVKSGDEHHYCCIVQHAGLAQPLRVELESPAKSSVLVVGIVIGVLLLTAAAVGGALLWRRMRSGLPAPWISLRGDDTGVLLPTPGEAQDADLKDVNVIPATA
# Chain of UniProt P55899 (P61769 21-119, chain 2 of 2, further chain): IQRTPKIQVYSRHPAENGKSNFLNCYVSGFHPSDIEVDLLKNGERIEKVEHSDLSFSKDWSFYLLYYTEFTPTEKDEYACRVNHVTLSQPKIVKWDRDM
binder,measurement,value
B1,Blockade of IgG intracellular uptake EC50,5.9 µg/mL
same,Blockade of IgG recycling EC50,1 µg/mL

# Reference: US20180044416A1 (UCB, published 2018)
